Results taken from PubChem BioAssay AID493208 (National Center for Advancing Translational Sciences (NCATS), 2011).
Screen size: about 44,000 compounds; about 340 (0.77%) were called active. Inconclusive results (about 5%) are left out. Calls come from the whole dose curve; as a rule, active = well fitted inhibition curve with a large enough effect; inconclusive = small, poorly fitted or top-dose-only effect; inactive = flat fitted curve, though single readings scatter. The list shows a part of the results.

assay: Acumen qHTS Assay for Inhibitors of the mTORC1 Signaling Pathway in MEF (Tsc2-/-, p53-/-) Cells: Sytravon; details: phospho-rpS6 immunofluorescence/PI, 24 h; series mostly up to 38.3 µM; activity change, negative = inhibition: at the top concentration;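 note: plate controls were DMSO for no effect and rapamycin for full effect; nearly all actives have a fitted effect of over 50% in size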
Method in brief: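 Readout is phospho-S6 Alexa 488 signal normalized to PI per well, reported as % active cells with thresholds set from rapamycin (7.5 nM) and DMSO controls. Cells: Tsc2-/-, p53-/- MEFs, 24 hrs compound at 37 C; PI cell number serves as viability.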

Activity change, negative = inhibition, inactive:
Cc1c(-c2nc(-c3ccccc3F)no2)nnn1-c1cc(F)ccc1F -3.81%
Cc1ccc(CNC(=O)CSc2c3c(nc4cc(Cl)ccc24)CCCC3)cc1 -6.2%
CCCNC(=O)C(C)n1nc(C)c2c(C)n(-c3ccccc3)nc2c1=O (configuration not stated) -4.57%
O=c1oc2cc(O)ccc2cc1-c1nnc(Nc2ccccc2F)s1 -9.14%
CCOc1ccccc1NC(=O)Cn1c(=O)n(Cc2ccco2)c(=O)c2ccc(C(=O)NC3CCCC3)cc21 -1.71%
COc1ccc(Cl)cc1NC(=O)Cn1nc(Cc2ccncc2)c2ccccc2c1=O -5.7%
Cc1cc(F)ccc1NC1(c2ccccc2)C(=O)c2ccccc2C1=O -1.29%
CCc1ccccc1NC(=O)C1CCN(C(=O)N2CC(C)Oc3ccc(Cl)cc32)CC1 (configuration not stated) -3.32%
COc1ccccc1NC(=O)N1CCC(CN2CCc3ccccc3C2)CC1 -2.34%
Cc1ccc(OC(=O)CSc2nnc(-c3cccs3)o2)cc1C 0.202%
CCn1cc(C(=O)NCCc2ccc(OC)c(OC)c2)c(=O)c2cc(S(=O)(=O)N3CCC(C)CC3)ccc21 2.45%
CCOc1ccc(-n2c(SCC(=O)N3CCCCCC3)nc3c([nH]c4ccccc43)c2=O)cc1 -0.326%
CCOc1ccc(N(CC(=O)Nc2ccccc2CC)S(=O)(=O)c2c(C)[nH]c(=O)[nH]c2=O)cc1 -7.24%
Cc1ccc(NC(=O)c2sc3nc[nH]c(=O)c3c2C)cc1Cl 0.0717%
Cc1ccc(NC(=O)Cn2c(=O)oc3ccccc32)cc1C 0.466%
Cc1c(Cl)cccc1-n1ncc(C(=O)NCc2cccs2)c1C1CCN(C(=O)OC(C)(C)C)CC1 1.15%
COC(=O)c1c(NC(=O)c2cc(OC)c(OC)c(OC)c2Br)sc2c1CCC(C)C2 (configuration not stated) -0.531%
Cc1cccc(NC(=O)c2cc(S(=O)(=O)N3CCN(c4ccccc4F)CC3)ccc2F)c1C 0.255%
COc1ccc(CNC(=O)CCn2nc(C)c3c(C)n(-c4ccccc4)nc3c2=O)c(OC)c1 0.484%
CNC(=O)Cn1c(=O)c2cccn2c2ccc(F)cc21 0.727%
COc1cc(C2c3c(-c4ccc(C)cc4)n[nH]c3C(=O)N2c2ccc(F)cc2)ccc1O (configuration not stated) -11.3%
CC(C)CNc1ncnc2c1nnn2C 0.691%
O=C(CCNS(=O)(=O)c1cccc2nsnc12)NCc1ccccc1 -15.2%
COc1ccc(CNC(=O)c2ccc3nc(CCc4ccccc4)oc3c2)c(OC)c1 -2.73%
COc1ccc(OC)c(C2C(C(=O)N3CCCCC3)=C(C)Nc3nc4ccccc4n32)c1 (configuration not stated) -1.71%
CC(C)(C)c1ccc(CN(Cc2ccco2)c2cnc(S(C)(=O)=O)nc2C(=O)Nc2ccc(F)cc2)cc1 -5.07%
Cc1cc(C)c(NC(=O)Cn2c(=O)nc(-c3ccccc3)c3cc(Cl)ccc32)c(C)c1 12.2%
COc1cc(NC(=O)N2CCC3(CC2)Nc2cc(F)ccc2-n2cccc23)cc(OC)c1OC 4.38%
Cc1cc(=O)n(Cc2cccc(F)c2)c2c1c(C)nn2-c1cccc(F)c1 -12.2%
CCc1cccc(CC)c1-n1nnc2c(sc3nc(C)cc(C)c32)c1=O -0.501%
Cc1ccccc1CN1c2ccccc2-c2nc(SCC(N)=O)ncc2S1(=O)=O 0.493%
CCc1ccc(-c2nn(CC(=O)Nc3ccccc3C)c3c2cnc2ccc(C)cc23)cc1 -4.51%
O=C(CSc1nc(-c2ccc(F)cc2)[nH]c1-c1ccccc1)Nc1ccccc1 8.53%
Clc1ccc(OCc2nc3ccccc3n2Cc2ccccc2)c(Cl)c1 -4.78%
COc1cc(/C=C/c2nc(C#N)c(NCCc3ccccc3)o2)cc(OC)c1OC -17.1%
CC(C)(C)C1CCc2c(sc3nnn(CCOc4ccccc4)c(=O)c23)C1 (configuration not stated) 2.42%
Cc1ccc(C)c(NC(=O)c2nn(C)c3c2CS(=O)(=O)c2ccccc2-3)c1 -12.4%
COc1cc(NC(=O)c2nc3ccccc3nc2N2CCCCC2)cc(OC)c1OC 0.808%
Cc1cccc(-c2nc(CSCC(=O)NCCc3ccc(Cl)cc3)c(C)o2)c1 2.47%
Cc1ccc(CNC(=O)c2ccc(-c3nc(CS(=O)c4ccccc4)c(C)o3)cc2)cc1 (configuration not stated) -3.88%
Cc1ccc(-c2nn(CC(=O)NC3CCCC3)c3c2cnc2ccccc23)cc1 -19.4%
Cc1ccc(C)c(NC(=O)CN2C(=O)c3cccnc3Oc3ccc(C)cc32)c1 -5.24%
COCCn1ccc2c(OCC(=O)Nc3ccccc3F)cccc2c1=O -3.38%
CCOC(=O)N1CCc2c(sc3c2c(=O)n(CCc2ccccc2)c(=O)n3CC(=O)Nc2cccc(C)c2)C1 10.5%
CCn1nc(C)c(CCN(C)C(=O)Nc2cc(C)cc(C)c2)c1C 0%
Cc1ccc(CSc2nc3ccc(NC(=O)COc4ccc(F)cc4)cc3s2)cc1 -0.986%
O=C(Nc1cnc(N2CCC(N3CCCCC3)CC2)c(C(=O)O)c1)c1ccc(Br)cc1 2.72%
COc1ccccc1NC(=O)c1c(NC(=O)Cc2ccccc2)sc2c1CCC(C(C)(C)C)C2 (configuration not stated) 0.318%
COc1ccc(-n2c(=O)c3c(c4cc(OC)ccc4n3C)n(Cc3ccc(F)cc3Cl)c2=O)cc1 0.0886%
COc1ccc(-c2cc(C(C)=O)c(C)n2CCC(=O)Nc2ccc(C(F)(F)F)cc2)cc1 -11.5%
COc1ccccc1NC(=O)Cn1c(=O)n(Cc2ccccc2)c(=O)c2c3c(sc21)CN(C(C)=O)CC3 0.374%
CCn1ccc2c(OCC(=O)NCc3ccc(C)cc3)cccc2c1=O 0.108%
Cc1cc(C)nc(-n2nc(C)c3c2NC(=O)CC3c2cc(F)ccc2F)n1 (configuration not stated) -0.816%
Cn1c(=O)cc(SCC(=O)N2CCN(c3ccccc3F)CC2)c2cc(Cl)ccc21 -2.47%
CC(C)Sc1ncc(Cl)c(C(=O)Nc2ccc(S(=O)(=O)Nc3ncccn3)cc2)n1 -2.57%
Cc1ccc(NC(=O)c2cc3c([nH]c2=O)CC(C)(C)CC3=O)c(C)c1 -2.91%
Cc1cc(Cl)ccc1OCC(=O)Nc1c(C(=O)c2ccccc2)oc2ccccc12 8.68%
O=C(CSc1ncc(-c2ccccc2)[nH]1)Nc1cccc(C(F)(F)F)c1 3.85%
COc1cc(Cn2c(=O)sc3ccccc32)ccc1OCCC(C)C -6.29%
CC(C)c1ccc2c(c1)-c1ccccc1S(=O)(=O)N2CC(=O)N1CCCCC1 -12.6%
Cc1ccccc1-c1nc(CS(=O)(=O)CC(=O)Nc2cc(Cl)cc(Cl)c2)c(C)o1 -1.68%
Cc1ccccc1CCNC(=O)C1CCN(c2nc3ccccc3nc2C(F)(F)F)CC1 7.06%
CCOc1ccc(C(=O)NCCn2cc(SCC(=O)Nc3ccccc3)c3ccccc32)cc1 10.5%
COC(=O)c1cc(NC(=O)c2sc3ncn(Cc4cccc(F)c4)c(=O)c3c2C)cc(C(=O)OC)c1 1.93%
COc1cc(CN(C(=O)c2cccc(C)c2)c2ccccn2)cc(OC)c1OC -1.4%
Cc1ccc(-n2c(SCC(=O)NCc3ccccc3)nc3c([nH]c4ccccc43)c2=O)cc1 4.75%
COc1ccccc1NC(=O)CCS(=O)(=O)c1cc2c3c(c1)CCN3C(=O)CC2 -1.37%
CCC1CCCCN1C(=O)c1nn(-c2ccc(OC)cc2)c(=O)c2c1c1ccccc1n2C (configuration not stated) 0.329%
O=C(NCc1ccccc1Cl)c1cc(=O)[nH]c2ccc(S(=O)(=O)N3CCCCC3)cc12 7.65%
CCN(Cc1ccccc1)C(=O)CN1C(=O)COc2ccc(S(=O)(=O)N(CC)CC)cc21 -2.1%
COc1ccccc1CNC(=O)Cn1c(=O)oc2cc(S(=O)(=O)NCc3ccccc3)ccc21 -11.7%
CC1=C(C(=O)Nc2ccc(Cl)cc2)C(C(C)C)n2nc(SCc3ccc(Cl)cc3)nc2N1 (configuration not stated) -0.853%
Cc1ccc(C)c(N2CCN(C(=O)CCn3c(=O)c4cccn4c4cccnc43)CC2)c1 -0.914%
COc1ccccc1Nc1nc(-c2ccccc2Cl)c2cc(Br)ccc2n1 10.2%
O=C(NCC1CCN(Cc2cccc(Cl)c2)CC1)c1cc2ccc3cccnc3c2[nH]1 -2.82%
COc1ccc(OC)c(CCNC(=O)C2=C(C)C(=O)OC23CCC(C)CC3)c1 (configuration not stated) -18%
O=C(Cn1nc(C(F)(F)F)c2c1CCC2)Nc1ccc(Cl)cc1 -2.62%
Cc1cc(C)c2c(CC(=O)Nc3ccc(S(=O)(=O)Nc4ncccn4)cc3)coc2c1 7.92%
CCc1cccc(C)c1NC(=O)Cn1ccn(Cc2ccc(Cl)cc2)c(=O)c1=O 5.18%
COc1ccc(NC(=O)CN(C)S(=O)(=O)c2cnc[nH]2)cc1Cl -5.09%
c1ccc(-c2nnc(CN3CCN(c4ccccc4)CC3)o2)cc1 4.02%
COc1ccc(-c2noc(COc3ccc(Br)cc3C)n2)cc1OC -2.53%
Cc1ccc2c(c1C)NC(=O)CC2c1ccc(Cl)cc1Cl (configuration not stated) 1.06%
CCc1ccc(OCC(=O)Nc2ccc(-c3nc4ncccc4o3)cc2)cc1 -0.925%
CCC(O)c1cc2c(cc1NC(=O)c1ccccc1F)OCCO2 (configuration not stated) -20.6%
O=C(CC1N=C2c3ccccc3N=C(SCc3cccc(F)c3)N2C1=O)NCc1ccc2c(c1)OCO2 (configuration not stated) 0.105%
O=C(O)c1ccc(NC(=O)c2cn(-c3ccccc3)nc2-c2ccc(Br)cc2)cc1 3.17%
Cc1ccc(N2CCN(C(=O)c3cc(S(=O)(=O)N4CCCCC4)c[nH]3)CC2)c(C)c1 -7.46%
Cc1ccc(-c2cc(C(=O)Oc3ccccc3Cl)no2)cc1C -6.82%
Cc1ccc2nc(Cl)c3cc(C(=O)NC4CCC(C)CC4)sc3c2c1 (configuration not stated) -4.19%
Cc1cccc(OCC(=O)N(Cc2ccccc2)c2ccccn2)c1 -3%
COC(=O)c1cnc(N2CCN(c3ccc(F)cc3)CC2)c2ccccc12 -3.68%
COc1ccc(CCNC(=O)c2ccc3c(Cl)c4c(nc3c2)CCCC4)c(OC)c1 -7.97%
CS(=O)(=O)N1CCCc2cc(C(=O)Nc3cccc(C(F)(F)F)c3)ccc21 0.833%
COc1ccc(C2C(=O)N(C3CCCCCC3)CC(=O)N2CCC2=CCCCC2)cc1 (configuration not stated) 16%
CC(=O)c1ccc(N2CCN(c3ncnc4onc(C)c34)CC2)cc1 0.243%
CC1CCC(NC(=O)c2ccc(CS(=O)(=O)c3c(Cl)cccc3Cl)o2)CC1 (configuration not stated) -18.1%
